The values that follow come from paper PMC10026737.

Holding throughout (assay): co-IP; H1299 cells co-transfected with a Flag-tagged and a V5-tagged protein; NP40 lysis buffer (50 mmol/L Tris-HCl pH 8.0, 0.5% NP-40, 1 mmol/L EDTA, 150 mmol/L NaCl); IP with anti-Flag antibody, immunoblot
In assay [1] the target is T1, Flag-USP36 deletion mutant, C-terminal nucleolar localization signal containing region (aa 801-1121) (UniProt Q9P275).
T1 sequence: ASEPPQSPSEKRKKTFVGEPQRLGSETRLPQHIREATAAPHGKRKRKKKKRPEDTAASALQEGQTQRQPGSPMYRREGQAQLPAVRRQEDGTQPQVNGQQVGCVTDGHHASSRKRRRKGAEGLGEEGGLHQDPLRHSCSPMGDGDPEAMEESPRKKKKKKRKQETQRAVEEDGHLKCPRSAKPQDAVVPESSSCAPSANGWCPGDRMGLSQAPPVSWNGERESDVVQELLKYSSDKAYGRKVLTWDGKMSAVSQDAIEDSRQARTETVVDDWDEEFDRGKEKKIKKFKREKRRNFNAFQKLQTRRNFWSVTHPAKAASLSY

The target in assay [2] is T2, Flag-USP36 deletion mutant, middle region (aa 421-800) (UniProt Q9P275).
T2 sequence: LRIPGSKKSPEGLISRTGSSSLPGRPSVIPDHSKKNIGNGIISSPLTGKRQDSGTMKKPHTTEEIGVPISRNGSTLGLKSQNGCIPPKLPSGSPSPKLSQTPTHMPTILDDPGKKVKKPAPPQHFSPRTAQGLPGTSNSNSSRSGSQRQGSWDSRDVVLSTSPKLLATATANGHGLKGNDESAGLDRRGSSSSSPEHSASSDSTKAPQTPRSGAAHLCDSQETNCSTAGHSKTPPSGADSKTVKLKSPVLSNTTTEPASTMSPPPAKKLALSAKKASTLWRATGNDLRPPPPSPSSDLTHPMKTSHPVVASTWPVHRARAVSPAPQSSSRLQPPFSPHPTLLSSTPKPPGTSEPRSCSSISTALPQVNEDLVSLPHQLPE

The target of assay [3] is T3, Flag-tagged full-length USP36 (wild-type) (UniProt Q9P275).
T3 sequence: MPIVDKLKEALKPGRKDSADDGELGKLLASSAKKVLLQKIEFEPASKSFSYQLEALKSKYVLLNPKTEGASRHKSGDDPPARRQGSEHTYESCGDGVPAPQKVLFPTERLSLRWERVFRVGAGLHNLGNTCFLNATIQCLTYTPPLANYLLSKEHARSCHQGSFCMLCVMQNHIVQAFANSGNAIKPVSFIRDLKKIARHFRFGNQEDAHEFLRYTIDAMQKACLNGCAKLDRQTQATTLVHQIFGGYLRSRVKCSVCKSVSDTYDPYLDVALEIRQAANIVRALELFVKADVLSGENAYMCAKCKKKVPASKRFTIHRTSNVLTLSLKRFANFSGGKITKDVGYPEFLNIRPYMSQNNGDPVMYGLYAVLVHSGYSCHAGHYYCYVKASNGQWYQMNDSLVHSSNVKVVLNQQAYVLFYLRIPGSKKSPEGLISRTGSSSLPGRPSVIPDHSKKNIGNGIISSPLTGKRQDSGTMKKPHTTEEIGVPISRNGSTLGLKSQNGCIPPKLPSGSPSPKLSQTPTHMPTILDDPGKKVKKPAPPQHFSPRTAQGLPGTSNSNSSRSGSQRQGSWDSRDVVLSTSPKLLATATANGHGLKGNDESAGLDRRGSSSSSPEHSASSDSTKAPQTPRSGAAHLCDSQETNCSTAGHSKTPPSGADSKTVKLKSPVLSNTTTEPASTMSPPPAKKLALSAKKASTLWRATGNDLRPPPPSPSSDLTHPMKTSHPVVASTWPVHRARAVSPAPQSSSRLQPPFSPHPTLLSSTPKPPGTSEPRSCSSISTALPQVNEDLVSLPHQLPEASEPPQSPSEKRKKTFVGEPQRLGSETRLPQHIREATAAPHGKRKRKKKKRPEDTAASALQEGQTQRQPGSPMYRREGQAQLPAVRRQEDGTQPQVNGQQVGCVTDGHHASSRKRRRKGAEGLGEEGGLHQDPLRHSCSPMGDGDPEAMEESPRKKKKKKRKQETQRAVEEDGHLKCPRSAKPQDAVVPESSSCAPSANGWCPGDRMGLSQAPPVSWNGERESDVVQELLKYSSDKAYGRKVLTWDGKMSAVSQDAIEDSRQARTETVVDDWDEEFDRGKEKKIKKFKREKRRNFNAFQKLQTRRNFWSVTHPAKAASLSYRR

The target of assay [4] is T4, Flag-USP36 deletion mutant, N-terminal USP domain containing region (amino acids 1-420) (UniProt Q9P275).
T4 sequence: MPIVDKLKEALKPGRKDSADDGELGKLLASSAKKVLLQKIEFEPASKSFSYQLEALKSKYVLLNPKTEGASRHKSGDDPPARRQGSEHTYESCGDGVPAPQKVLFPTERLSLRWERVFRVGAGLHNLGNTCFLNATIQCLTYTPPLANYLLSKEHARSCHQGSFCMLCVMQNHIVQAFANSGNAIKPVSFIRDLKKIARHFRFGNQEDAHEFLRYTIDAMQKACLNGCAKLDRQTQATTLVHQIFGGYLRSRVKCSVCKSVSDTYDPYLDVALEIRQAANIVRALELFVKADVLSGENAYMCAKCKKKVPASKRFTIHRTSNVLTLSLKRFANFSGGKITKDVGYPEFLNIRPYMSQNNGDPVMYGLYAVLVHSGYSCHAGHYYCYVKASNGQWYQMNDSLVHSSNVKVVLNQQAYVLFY

No constants are given. Whether binding was seen depends on the method and setting. Binding seen in cells or lysates may run through a third protein. Some results given as binding are weak or reduced against the parent protein; the word gives no strength. Where a sequence is shown, tags or fusion partners need not be part of it.

B1: V5-DGCR8 (protein, UniProt Q8WYQ5 1-773)
chain: METDESPSPLPCGPAGEAVMESRARPFQALPREQSPPPPLQTSSGAEVMDVGSGGDGQSELPAEDPFNFYGASLLSKGSFSKGRLLIDPNCSGHSPRTARHAPAVRKFSPDLKLLKDVKISVSFTESCRSKDRKVLYTGAERDVRAECGLLLSPVSGDVHACPFGGSVGDGVGIGGESADKKDEENELDQEKRVEYAVLDELEDFTDNLELDEEGAGGFTAKAIVQRDRVDEEALNFPYEDDFDNDVDALLEEGLCAPKKRRTEEKYGGDSDHPSDGETSVQPMMTKIKTVLKSRGRPPTEPLPDGWIMTFHNSGVPVYLHRESRVVTWSRPYFLGTGSIRKHDPPLSSIPCLHYKKMKDNEEREQSSDLTPSGDVSPVKPLSRSAELEFPLDEPDSMGADPGPPDEKDPLGAEAAPGALGQVKAKVEVCKDESVDLEEFRSYLEKRFDFEQVTVKKFRTWAERRQFNREMKRKQAESERPILPANQKLITLSVQDAPTKKEFVINPNGKSEVCILHEYMQRVLKVRPVYNFFECENPSEPFGASVTIDGVTYGSGTASSKKLAKNKAARATLEILIPDFVKQTSEEKPKDSEELEYFNHISIEDSRVYELTSKAGLLSPYQILHECLKRNHGMGDTSIKFEVVPGKNQKSEYVMACGKHTVRGWCKNKRVGKQLASQKILQLLHPHVKNWGSLLRMYGRESSKMVKQETSDKSVIELQQYAKKNKPNLHILSKLQEEMKRLAEEREETRKKPKMSIVASAQPGGEPLCTVDV
In the case of B1, the binding entry in assay [1] is listed as “binds”; in assay [2], “no binding”; in assay [3] it was “binds”; in assay [4] it was “binds”.
